Results taken from PMC9911399, “Two distinct binding modes provide the RNA-binding protein RbFox with extraordinary sequence specificity”.
Where a chain is given by its changes, count along the chain named. The list shows a part of the results.

T1: RBFOX1 RRM RbFoxmut (Fox-RRM*) (Homo sapiens, UniProt Q9NWB1 109-208, R118D;E147R;N151S;E152T)
T1 sequence: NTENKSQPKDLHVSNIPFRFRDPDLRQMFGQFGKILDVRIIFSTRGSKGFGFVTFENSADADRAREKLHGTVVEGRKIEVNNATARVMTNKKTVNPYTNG

B1: AUCCAAG (DNA:RNA)
RNA: GGGAGACCGGAAUUCAGAUUGUCCAUCCAAGUUAAAUCCCGUCGUAGCCACCA
DNA 1: CAATCTGAATTCCGGTCTCCC
DNA 2: TGGTGGCTACGACGGGATT
B2: CGCCCAG (DNA:RNA)
RNA: B1 RNA with A25C, U26G, A29C
DNA 1: CAATCTGAATTCCGGTCTCCC
DNA 2: TGGTGGCTACGACGGGATT
B3: CCUCGUG (DNA:RNA)
RNA: B1 RNA with A25C, U26C, C27U, A29G, A30U
DNA 1: CAATCTGAATTCCGGTCTCCC
DNA 2: TGGTGGCTACGACGGGATT
B4: CCAUUAG (DNA:RNA)
RNA: B1 RNA with A25C, U26C, C27A, C28U, A29U
DNA 1: CAATCTGAATTCCGGTCTCCC
DNA 2: TGGTGGCTACGACGGGATT
B5: UCGACAA (DNA:RNA)
RNA: B1 RNA with A25U, U26C, C27G, C28A, A29C, G31A
DNA 1: CAATCTGAATTCCGGTCTCCC
DNA 2: TGGTGGCTACGACGGGATT
B6: UUGCUAG (DNA:RNA)
RNA: B1 RNA with A25U, C27G, A29U
DNA 1: CAATCTGAATTCCGGTCTCCC
DNA 2: TGGTGGCTACGACGGGATT
B7: GCAGGAC (DNA:RNA)
RNA: B1 RNA with A25G, U26C, C27A, C28G, A29G, G31C
DNA 1: CAATCTGAATTCCGGTCTCCC
DNA 2: TGGTGGCTACGACGGGATT
B8: CAACGGU (DNA:RNA)
RNA: B1 RNA with A25C, U26A, C27A, A29G, A30G, G31U
DNA 1: CAATCTGAATTCCGGTCTCCC
DNA 2: TGGTGGCTACGACGGGATT
B9: GCCGGGU (DNA:RNA)
RNA: B1 RNA with A25G, U26C, C28G, A29G, A30G, G31U
DNA 1: CAATCTGAATTCCGGTCTCCC
DNA 2: TGGTGGCTACGACGGGATT

Target: T1, RBFOX1 RRM RbFoxmut (Fox-RRM*)
Test: EMSA; HiTS-Eq, 1 nM pool, 10 min; buffer printed only for the single-RNA assays: 10 mM Tris pH 7.5, 150 mM NaCl, 3.4 mM EDTA, 0.001% NP-40, 30 C
Conditions: tags: His6 N-terminal (pET28a); label: 5' 32P
Summary of the method: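 Relative association constants, normalised to the cognate motif, were derived by comparing read counts of each RNA species with those of the control reaction. The RNA sequenced was the free fraction, separated by 8% native PAGE after a 10 min equilibration in 50 µL of 1 nM 5′-radiolabelled RNA (7 randomized nucleotides) with increasing concentrations of purified wild-type or mutant RbFox RRM.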

Binder | binding signal
B1 | 0.128 KA relative to UGCAUGU
B2 | 0.115 KA relative to UGCAUGU
B3 | 0.118 KA relative to UGCAUGU
B4 | 0.124 KA relative to UGCAUGU
B5 | 0.0417 KA relative to UGCAUGU
B6 | 0.177 KA relative to UGCAUGU
B7 | 0.0643 KA relative to UGCAUGU
B8 | 0.0732 KA relative to UGCAUGU
B9 | 0.108 KA relative to UGCAUGU
